From the supplement of paper PMC5499739
Over roughly 16,000 sequences, “Z-score” has its median near -0.37; the highest 2% begin near 3.1. The list shows a part of the results.

Test system: RBM10 RRM1-ZnF-RRM2 (GST-tagged construct)
Experiment: RNAcompete 7-mer binding Z-score; higher = stronger binding preference
Description: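 RNAcompete: 20 pmol GST-tagged RBM10 RNA-binding constructs were incubated with a designed RNA pool of about 241,000 sequences up to 41 nt (1.5 nmol) on glutathione beads for 30 min at 4 °C and washed. Bound RNAs were identified by microarray hybridisation. Each RNA 7-mer is scored by a one-sided Z-score of its enrichment, computed over probes that contain the 7-mer within longer pool sequences.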

| Sequence | RNAcompete 7-mer binding Z-score |
| --- | --- |
| GAAUACA | -0.0561 |
| UAUUCUG | -0.639 |
| GCAAAAU | -0.0998 |
| CGACUAC | -0.544 |
| UCUUUGA | -0.719 |
| CACGACA | -0.162 |
| AGCGAUG | 1.05 |
| GUAAGAU | 0.541 |
| UCAAGCC | -0.854 |
| CAGGUCG | 0.727 |
| AGAUCAU | -0.541 |
| GCAGUCC | -0.613 |
| ACUCCAG | -0.548 |
| GUUGAAA | 0.213 |
| CACCGAU | -0.584 |
| UUGAGAG | 0.457 |
| GUUCCUU | -0.661 |
| GUUCUCU | -0.788 |
| AAUAUAU | -0.275 |
| UUGGCCC | -0.763 |
| GGGGCAU | 2.49 |
| UACCUAU | -0.555 |
| CGUAGGG | 2.3 |

| Sequence | RNAcompete 7-mer binding Z-score |
| --- | --- |
| AUGGGGA | 4.23 |
| AUCGGUC | -0.431 |
| GGGUGCA | 3 |
| UCGGAAU | 0.0641 |
| UGCCCGU | -0.653 |
| CCUACUU | -0.996 |
| GGCGGCA | 1.12 |
| CGGUGCA | 0.202 |
| AGAUGGC | 0.596 |
| AACAGAC | -0.0415 |
| CAAAGUA | -0.0889 |
| GGCAUAA | 0.29 |
| GGCUAAA | 0.661 |
| GCUUUGG | -0.242 |
| UGCAGUA | 0.0058 |
| UUGAUCU | -0.639 |
| GGUCCGU | 0.301 |
| CGCCUAC | -0.817 |
| GAUGUCC | -0.712 |
| AGUGGCA | 1.68 |
| GCUUGGA | -0.00148 |
| GGUAAUA | 1.02 |
| GAGUACA | 0.334 |

| Sequence | RNAcompete 7-mer binding Z-score |
| --- | --- |
| UAGAUCU | -0.602 |
| GGCACUA | 0.224 |
| UACAGUA | 0.137 |
| GAUCCGA | -0.562 |
| GCUUUUU | -0.861 |
| GUUUGCG | -0.118 |
| CUAGAAA | -0.479 |
| CGUAUAC | -0.435 |
| UCCAAUA | -0.307 |
| ACCGCGU | -0.744 |
| CCUAAAA | -0.785 |
| UGCCCGG | -0.413 |
| ACAAAGC | -0.413 |
| GCUAAAG | 0.0349 |
| AUUAUAC | -0.646 |
| UAUUCUA | -0.795 |
| AUAGGGU | 4.33 |
| CUGCUGG | -0.468 |
| UAGUUUA | -0.34 |
| UUUCAGC | -0.81 |
| AAAUGGC | 1.42 |
| GAAACCC | -0.653 |
| CAUAUAC | -0.664 |

| Sequence | RNAcompete 7-mer binding Z-score |
| --- | --- |
| GAUAUGG | 3.32 |
| GAAAAAA | 0.359 |
| UCCUCGC | -0.825 |
| GCAAUAA | 0.0349 |
| UGGUGUU | 0.752 |
| UCACCUC | -0.734 |
| GCUCGUA | -0.395 |
| CCUAACU | -0.766 |
| CUUUGUU | -0.948 |
| ACACAAA | -0.34 |
| GGUGGCG | 2.88 |
| AUGACUU | -0.836 |
| AAGCGCA | -0.107 |
| UGACUAC | -0.486 |
| CGCCGUU | -0.683 |
| AAGACAC | -0.311 |
| UGGUCUG | 0.0532 |
| CUCGUCU | -0.741 |
| CAUAACU | -0.592 |
| UUGAAAU | -0.417 |
| UGUGUAA | 0.202 |
| CGUAAUA | -0.46 |
| AGUUUCA | -0.366 |

| Sequence | RNAcompete 7-mer binding Z-score |
| --- | --- |
| UGAAUGC | -0.358 |
| UAUCACG | -0.435 |
| GGAAACA | 1.91 |
| CUAUCCU | -0.934 |
| CUUUGGA | -0.42 |
| CCUGCCU | -0.948 |
| GUUAUAU | -0.333 |
| GGAGCAA | 1.93 |
| GUGAAGA | 0.844 |
| UCAUCCA | -0.661 |
| CUUGGAC | -0.719 |
| AUGCGUA | -0.0379 |
| UAUCCAC | -0.635 |
| GCGCAAG | -0.0197 |
| GAGGACA | 1.54 |
| UUUGGUC | -0.38 |
| GUUUAAA | -0.42 |
| GGCAAAU | 0.53 |
| UUGUUUC | -0.639 |
| CAGUGAU | -0.165 |
| CUGAUGU | -0.464 |
| GUGGACA | 1.79 |
| CUGGCGG | 0.541 |

| Sequence | RNAcompete 7-mer binding Z-score |
| --- | --- |
| UACCAGU | -0.439 |
| AGCUUGC | -0.708 |
| AGAUAGG | 2.87 |
| UCAGGAC | 0.0277 |
| UACCAAC | -0.584 |
| UGCGGGA | 1.7 |
| AGGUGAU | 1.62 |
| GAAAGUA | 0.596 |
| GCGGCCC | -0.409 |
| GAGUAUU | -0.133 |
| UGAAGUC | -0.351 |
| GCGCUGU | -0.191 |
| UUUGUUU | -0.428 |
| CAGUACA | -0.0816 |
| CUCCGGG | 0.297 |
| GUGGAGU | 2.86 |
| GAACUCA | -0.5 |
| CCUAUGA | -0.785 |
| AUAUACA | -0.373 |
| GUUCUGU | -0.446 |
| CCACACA | -0.668 |
| CGCCGCA | -0.675 |
| AUACCUA | -0.788 |

| Sequence | RNAcompete 7-mer binding Z-score |
| --- | --- |
| AUACGCA | -0.282 |
| AUUCCGA | -0.701 |
| GCUGGCU | -0.118 |
| UUUGGCC | -0.694 |
| CAGUUAA | -0.468 |
| UACCCAC | -0.672 |
| AACAGCA | -0.00512 |
| GAGGAUG | 2.57 |
| CAUGCAA | -0.289 |
| UGGCGUU | 0.0896 |
| CGACGUA | 0.0459 |
| CGUUAUA | -0.453 |
| GAGGGCG | 2.81 |
| UGACAGA | 0.144 |
| CCAUUCC | -0.781 |
| AUAGCAG | 0.465 |
| AGAAGAG | 1.61 |
| CUUACCU | -0.927 |
| UGAUGCG | 0.414 |
| GUGAUUC | -0.176 |
| ACGUCAG | -0.329 |
| GUGUUAA | 0.141 |
| CCCUGGA | -0.326 |

| Sequence | RNAcompete 7-mer binding Z-score |
| --- | --- |
| GGCACGA | 0.505 |
| AGUUCCC | -0.595 |
| UCAUCCC | -0.806 |
| CAAUCAG | 0.00944 |
| CGGAUGA | 0.887 |
| ACCUUAU | -0.981 |
| CCGGCUU | -0.879 |
| CGAUCAC | -0.657 |
| UAAUUGU | -0.624 |
| UGAAUCU | -0.57 |
| ACGAUUG | -0.0889 |
| CGUAGAA | 0.181 |
| UGUGCUU | -0.719 |
| CCGGCUG | -0.468 |
| GCAACUG | -0.213 |
| GCGUAAC | -0.144 |
| GAUAUCC | -0.573 |
| ACGUAGC | -0.0561 |
| AUUACAA | -0.3 |
| AUUCCUG | -0.832 |
| UGUCUCC | -0.836 |
| CAUGCUC | -0.77 |
